# From the supplement of paper PMC3724861
# This is one part of the list.
# Tested on: T1, Caupolican (Caup) homeodomain DNA-binding domain
# T1 sequence: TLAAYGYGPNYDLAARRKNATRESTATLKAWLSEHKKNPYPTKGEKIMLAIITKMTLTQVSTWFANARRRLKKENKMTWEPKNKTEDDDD
# Assay: PBM E-score (8-mer, recovered from the published 9-mer minima) (E-score (dimensionless, -0.5 to 0.5)); Drosophila protein; higher = stronger relative binding preference, active = 0.31 or more
# Method in brief: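 Caup's homeodomain DNA-binding domain (residues 214-303) was produced by in vitro transcription and translation and applied at 100 nM to custom-designed protein binding microarrays. Each value is an enrichment score giving relative binding preference for a short DNA word; higher means stronger. Published 9-mer scores were the minimum of their two constituent 8-mer scores, and the 8-mer values were recovered from those minima. A cutoff of 0.31 marks candidate binding sequences.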
row,Sequence,PBM E-score
1,CCCGACCC,inactive: -0.206
2,ACTATATA,inactive: 0.167
3,AAGTTTCA,inactive: 0.018
4,CGCACACA,inactive: -0.0192
5,GGCGCCAA,inactive: -0.109
6,CGTCAGTC,inactive: -0.0655
7,AGTTGAGA,inactive: -0.0383
8,GCTTGCTA,inactive: -0.0628
9,TATACTAA,inactive: 0.179
10,ATTTACGC,inactive: 0.0107
11,ATATTCGG,inactive: 0.0222
12,GGCGGCCA,inactive: -0.196
13,ACGTGCCA,≥ 0.0232
14,GGACCGTA,inactive: -0.147
15,CCCGCGGG,inactive: -0.221
16,ATCGTCTG,inactive: 0.00406
17,AACAACGT,inactive: 0.252
18,GCACAGCA,inactive: -0.00134
19,CCGGAGTA,≥ -0.0149
20,CTGCGTTC,inactive: -0.0733
21,CATACCAA,inactive: 0.164
22,AGACGATC,inactive: -0.0741
23,ACTGGGAC,inactive: 0.0611
24,GCACAGAA,inactive: -0.0167

row,Sequence,PBM E-score
1,GAGTAACC,inactive: -0.034
2,GGAAGGTA,inactive: -0.0159
3,GAGGGGCA,inactive: -0.162
4,GGGGGGAA,inactive: -0.279
5,GAAAGATC,inactive: -0.09
6,CTGTATGC,inactive: 0.0355
7,CAATAGGC,inactive: -0.0224
8,AGTGCTAT,inactive: 0.0743
9,CAATGAGG,inactive: -0.0553
10,AAGGCGCA,inactive: -0.0698
11,AGAACCCC,inactive: -0.194
12,CTGGGGCA,inactive: -0.226
13,TAACGTCA,≥ 0.0839
14,GTAAACGA,inactive: 0.0684
15,GCGAGAAA,inactive: -0.09
16,GTGACTGA,inactive: 0.103
17,AACCGGCC,inactive: -0.2
18,CCAATGCA,inactive: 0.0557
19,AGAGAAAC,inactive: 0.108
20,CTCGTATA,inactive: 0.0503
21,CCTGTTCG,inactive: 0.0935
22,GGGATTCA,inactive: -0.0518
23,AACTTCAT,inactive: 0.108
24,TGTATGAA,inactive: 0.195

row,Sequence,PBM E-score
1,ACATCCAG,inactive: 0.177
2,AGGTGAAT,inactive: 0.0215
3,CGATAGCC,inactive: -0.126
4,CACGACGG,inactive: 0.00986
5,CCGAAAGG,inactive: -0.109
6,CCACCTCG,inactive: -0.215
7,AAAAGTAA,inactive: 0.107
8,ACTGCCTA,inactive: 0.0161
9,CTGGTAAA,inactive: 0.0826
10,ATCGTTGC,inactive: 0.0388
11,ATTGAACG,inactive: 0.0649
12,AGCGTAAG,inactive: -0.163
13,ATCACGAG,inactive: 0.0314
14,AGGACCAG,inactive: -0.123
15,AAGCAAAT,≥ 0.13
16,CAGCCTAG,inactive: -0.117
17,ACGCTTTG,inactive: -0.0992
18,GCTATCCC,inactive: -0.124
19,ACTCTGAT,inactive: 0.026
20,CGCGGACG,inactive: -0.166
21,GGCACAGA,inactive: -0.103
22,AGCCGCCT,inactive: -0.222
23,CCCTTCTA,inactive: -0.0818
24,ACTGGCGC,inactive: -0.147

row,Sequence,PBM E-score
1,GGTTGCCA,inactive: -0.079
2,GCAGCGAC,inactive: -0.118
3,GGACGGAA,inactive: -0.0946
4,ACAAGATA,active: 0.342
5,CGCCAACG,inactive: -0.132
6,AGCCCCCG,inactive: -0.288
7,GGTACGGA,inactive: -0.0204
8,AGGGTAGA,inactive: -0.154
9,ACTGCGAA,inactive: -0.0547
10,AGCTAGGC,inactive: -0.138
11,ACGTCCCA,inactive: -0.0135
12,CATGTCGC,active: 0.363
13,GCTCCTAC,inactive: -0.0796
14,GCGCAGCA,inactive: -0.249
15,CCAGTAAG,inactive: 0.0272
16,ATGACTAC,inactive: 0.105
17,CTAAGCGA,inactive: -0.115
18,CCCGAAGG,inactive: -0.208
19,AAGTGCGA,inactive: -0.145
20,CCGCCTTC,inactive: -0.262
21,GCGTTTAA,inactive: 0.083
22,TGCTAGCA,≥ 0.0581
23,GCACACTA,inactive: 0.0238
24,CGCTTCTA,inactive: -0.0139

row,Sequence,PBM E-score
1,AGTTAAAG,inactive: 0.0212
2,CCACTGTC,inactive: -0.102
3,CCTTCCTA,inactive: -0.139
4,ACCATCTG,inactive: -0.0289
5,CCAGGAAA,inactive: -0.0138
6,AGAACGCG,inactive: -0.0353
7,CGCGCGAA,inactive: -0.0533
8,AAGCGAAA,inactive: -0.0906
9,AACGAAGT,inactive: 0.0539
10,ACATTCCG,inactive: 0.109
11,GACGGCGA,inactive: -0.228
12,AATTAAAG,inactive: -0.0157
13,AGTCTATA,inactive: 0.0467
14,CAGGGCTA,inactive: -0.125
15,CTCAGCAA,inactive: 0.0502
16,AACACATG,active: 0.313
17,ATGATGAC,inactive: 0.0907
18,AATCAAAG,inactive: -0.0389
19,ACCGTGGC,inactive: -0.0957
20,ATTACATA,active: ≥ 0.385
21,AGATTACT,inactive: 0.108
22,CTAAACTC,inactive: -0.0416
23,TCATTACA,inactive: 0.291
24,CTTTCTAC,inactive: 0.0118

row,Sequence,PBM E-score
1,CAGTGCGG,inactive: -0.227
2,CACTCAAA,inactive: 0.0936
3,CGGGCAGA,inactive: -0.0885
4,AGAAGACG,inactive: -0.0252
5,GAACAACA,inactive: 0.292
6,AACGTGTA,active: 0.371
7,AAAGACGG,inactive: -0.139
8,TGAATGAA,inactive: 0.0539
9,CGACTTTA,inactive: 0.0125
10,ATATCAGC,inactive: 0.112
11,GGGCAATA,inactive: -0.0408
12,AGATACCT,inactive: 0.0373
13,CTAGAAAG,inactive: -0.00765
14,GCGGTGTA,inactive: 0.234
15,ACTTGGCC,inactive: -0.142
16,GGTCTTAC,inactive: 0.013
17,CAGGTTCC,inactive: -0.0686
18,AGCTCAGA,inactive: -0.0611
19,ATTGAGGC,inactive: -0.183
20,CATGGTTC,inactive: 0.0641
21,CTTGTGAC,inactive: 0.0863
22,ATGGACCG,inactive: -0.0785
